The campaign covered roughly 310,000 compounds. About 14,000 (4.5%) showed an effect of 50% or more. The effect is printed as a negative number. The list shows a part of the results.
Molecular target: human ether-à-go-go-related gene (hERG) potassium channel (human, UniProt Q12809)
Test: primary screen, population patch clamp on CHO cells stably expressing hERG
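Note: peak tail current of the secondary pulse compared with the same well before compound.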

Sequence of human ether-à-go-go-related gene (hERG) potassium channel (Q12809 whole entry, looked up): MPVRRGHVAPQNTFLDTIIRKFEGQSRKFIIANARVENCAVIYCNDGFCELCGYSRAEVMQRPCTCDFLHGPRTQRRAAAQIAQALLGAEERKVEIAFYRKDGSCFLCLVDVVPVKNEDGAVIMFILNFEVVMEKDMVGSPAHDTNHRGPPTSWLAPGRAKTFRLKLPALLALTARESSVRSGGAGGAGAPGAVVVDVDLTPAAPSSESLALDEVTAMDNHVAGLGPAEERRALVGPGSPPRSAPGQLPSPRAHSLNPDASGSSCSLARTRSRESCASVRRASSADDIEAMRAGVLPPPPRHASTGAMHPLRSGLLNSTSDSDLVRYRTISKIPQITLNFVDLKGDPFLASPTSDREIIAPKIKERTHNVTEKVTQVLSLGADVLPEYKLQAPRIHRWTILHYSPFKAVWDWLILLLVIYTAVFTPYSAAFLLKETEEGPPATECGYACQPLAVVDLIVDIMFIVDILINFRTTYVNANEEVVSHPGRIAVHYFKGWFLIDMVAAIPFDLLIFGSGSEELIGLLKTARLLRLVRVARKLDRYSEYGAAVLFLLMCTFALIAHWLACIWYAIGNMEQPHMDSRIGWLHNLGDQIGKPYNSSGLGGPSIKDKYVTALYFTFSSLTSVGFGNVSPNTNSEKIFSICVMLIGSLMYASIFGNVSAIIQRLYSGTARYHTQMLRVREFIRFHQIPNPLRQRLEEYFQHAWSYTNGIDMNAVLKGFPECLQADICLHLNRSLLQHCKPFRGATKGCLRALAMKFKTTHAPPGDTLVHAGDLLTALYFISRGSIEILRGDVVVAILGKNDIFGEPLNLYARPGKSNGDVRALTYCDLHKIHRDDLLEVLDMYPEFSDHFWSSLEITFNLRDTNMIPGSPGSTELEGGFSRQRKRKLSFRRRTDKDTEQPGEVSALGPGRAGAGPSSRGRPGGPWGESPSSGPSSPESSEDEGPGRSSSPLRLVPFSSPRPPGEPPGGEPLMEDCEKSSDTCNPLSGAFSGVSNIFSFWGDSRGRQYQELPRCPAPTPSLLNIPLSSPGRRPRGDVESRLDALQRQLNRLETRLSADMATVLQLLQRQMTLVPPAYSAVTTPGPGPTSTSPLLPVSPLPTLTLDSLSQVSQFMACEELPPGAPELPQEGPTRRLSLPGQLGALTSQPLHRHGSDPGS

SMILES	hERG current change (%, negative = inhibition) at 10uM [%]
COc1cc2c(cc1OC)CN(C(=O)CNC(=O)c1ccc(OC(F)F)cc1)CC2	-52.5
CCOCCCNC(=O)C(c1ccc(OC)cc1)N(Cc1ccc2c(c1)OCO2)C(=O)c1ccccc1O (stereo not shown)	-1.34
COc1cc(/C=C/C(=O)OCC(=O)NCc2ccco2)ccc1OCC#N	1.7
CCc1ccc(NC(=O)CSc2nc3ncc(Br)cc3[nH]2)cc1	18.8
O=C(Nc1ccc2c(c1)OCO2)N1CCCC1	22.8
COc1ccc(CCNC(=O)CSc2nc3ccccc3o2)cc1	-6.35
Cc1cc(S(=O)(=O)NCc2ccccc2)ccc1OCC(=O)NCc1ccncc1	-3.71
Cn1nnnc1SCC(=O)Nc1ccc(N2CCOCC2)cc1	5.57
COc1ccccc1NC(=O)CCCC(=O)OCC(=O)c1ccc(F)cc1	5.74
CCOc1ccc(C(C)=O)cc1CN1C(=O)NC2(CCCCC2C)C1=O (stereo not shown)	2.64
COCCN1C=C(C(=O)OC)C(c2ccc3c(c2)OCO3)C(C(=O)OC)=C1	-14.2
CCC1Cc2c(nc(N)c3c(N)nc(N4CCCCC4)c(C#N)c23)O1 (stereo not shown)	-35.2
COc1ccc(N(CC(=O)NC2CCCCC2)C(=O)c2snc(C(N)=O)c2N)cc1	0.904
CNC(=S)N/N=C/c1cc(Br)cc(Br)c1O	8.78
COCC(=O)N1CCC(Oc2ccc(C(=O)N3C[C@H]4CC[C@H]3C4)cc2)CC1	14.2
Nc1ccc(NC(=O)c2ccco2)c(Cl)c1	12.9
O=C(COc1ccccc1)NS(=O)(=O)c1ccc(Cl)cc1	22
CCN(CC)C(=O)c1cnn(-c2ccccc2)c1NC(=O)c1ccco1	-12.8
O=C1Nc2cc(C(=O)NCCN3CCCCCC3)ccc2S/C1=C\c1ccccc1	-43.9
O=C(CCNC(=O)c1ccc(Cl)cc1)NN1C(=O)NC2(CCCCC2)C1=O	-4.24
CC(C)(C)C(=O)Nc1ccnn1C1CCN(C(=O)c2cccc(Cl)c2)CC1	6.09
N#C/C(C(N)=O)=C1/SC=C(c2ccccc2)N1c1ccccc1	10.3

SMILES	hERG current change (%, negative = inhibition) at 10uM [%]
Cc1ccc(S(=O)(=O)c2cc3ccccc3oc2=Nc2ccc3c(c2)OCO3)cc1	4.43
CC(=O)c1ccc(OCc2cc(C(=O)N(C)CCOc3ccc(C)cc3)no2)cc1	-0.168
FC(F)(F)c1cccc(-c2nnc3ccc(C(F)(F)F)cn23)c1	-65.2
CCc1ccc(/C=C2/C(=O)NC(=O)N2C(C)=O)cc1	7.88
CCOc1ccc(NC(=O)CC2C(=O)N(C)C(=S)N2Cc2ccc3c(c2)OCO3)cc1 (stereo not shown)	-8.33
CSc1nc(Cc2ccccc2)cc(=O)[nH]1	16.4
Cc1cc(C(=O)CN2C(=O)C(=O)N(Cc3ccccc3)C2=O)c(C)n1-c1ccc2c(c1)OCCO2	14
COCCN(C(=O)Cc1cccs1)C(C(=O)NCc1ccc(OC)cc1)c1ccccc1 (stereo not shown)	-29.7
COc1ccc(/C(C)=N/NC(=O)CNC(=O)Cc2ccccc2)c(OC)c1	-4.12
O=C(CCS(=O)(=O)c1ccccc1)Nc1ccc(-c2nc3ccccc3s2)c(O)c1	10.4
Cn1c(=O)c2c(nc(CN3CCN(C(=O)c4ccco4)CC3)n2CC(=O)C(C)(C)C)n(C)c1=O	3.17
CCC(NC(=O)NCc1ccc2c(c1)OCO2)(C(F)(F)F)C(F)(F)F	-2.07
CC1CN(C(=O)c2cccs2)CC(C)O1 (stereo not shown)	9.47
Cc1ccc(OCc2nc(-c3ccccn3)no2)c(Br)c1	-22.5
CC1Cc2nc(SCC(=O)NCc3ccco3)n(-c3ccccc3)c(=O)c2S1 (stereo not shown)	-33.5
Cc1csc(NC(=O)COCC(=O)O)c1-c1nc2ccccc2s1	-1.83
Cc1sc(C(=O)NCc2cccnc2)c2nc(C)n(CC(=O)NCc3cccnc3)c(=O)c12	0.617
CC(C)c1ccc(NC(=O)NCc2ccc3c(c2)OCO3)cc1	13.4
Cc1cc(OCCCn2ccnc2)cc(C)c1Cl	-15.7
Cc1ccc(S(=O)(=O)NNc2ccccc2)cc1	14.4
CC(=O)c1ccc2c(c1)C1C(Cl)C(Sc3ccccc3[N+](=O)[O-])CC1C(c1ccccc1)N2 (stereo not shown)	15.1
CCN1CCCC1CNC(=O)c1cc2cc(OC)c(OC)cc2[nH]1 (stereo not shown)	16.6

SMILES	hERG current change (%, negative = inhibition) at 10uM [%]
CCN(Cc1cccc(F)c1)C(=O)c1ccc2ccccc2n1	-6.51
COc1ccc(/C=C/C(=O)OCC(=O)NC2CCCCC2C)c(OC)c1 (stereo not shown)	-9.38
COc1cccc(/C=N/NC(=O)CCCC(=O)Nc2ccc(Br)cc2)c1	5.9
COc1ccc(N(C(=O)c2ccc(S(=O)(=O)N3CCOCC3)cc2)C2C=CS(=O)(=O)C2)cc1 (stereo not shown)	-29.5
CCn1c2ccccc2c2n[nH]c(=S)nc21	12.4
CCc1nnc(NC(=O)c2cccc(S(=O)(=O)N3CCCC3)c2)s1	11
CC(C)CNC(=S)N1CCC(C(=O)c2ccc3c(c2)OCCO3)CC1	-14.7
NC(=O)N/N=C1\c2ccccc2-c2c(C(N)=O)cccc21	9.97
COc1ccc(NC(=O)c2sc(SCc3ccccc3)nc2N)cc1	11.5
CC(=O)N1CCN(c2ccccc2NC(=O)c2ccc(Br)o2)CC1	-54.4
CCN(CC)CCN(C(=O)c1ccc2c(c1)OCCO2)c1nc2cc(C)cc(C)c2s1.Cl	-69.9
COc1ccccc1NS(=O)(=O)c1cccc(C(=O)NCc2ccccn2)c1	13.2
CC(=O)N1CCN(S(=O)(=O)c2ccc(C)c([N+](=O)[O-])c2)C1C(C)C (stereo not shown)	9.22
O=C(C1CCN(S(=O)(=O)c2ccccc2)CC1)N1CCN(c2ccccc2)CC1	35.7
CC1(C)CC(=O)C/C(=N\NC(=O)Cc2ccccc2)C1	17.9
CCCCN(C)C(=O)CSc1nc(NCc2ccc(OC)cc2)c2ccccc2n1	-71
Cc1ccccc1-c1nnc(SCC(=O)Nc2cccc(C)c2C)o1	-8.46
C=CCn1c(N2C(=O)CC(Cc3ccccc3)C2=O)nc2ccccc21 (stereo not shown)	-29.1
CC(=O)Nc1ccc(NC(=O)CN(C)S(=O)(=O)c2ccc3c(c2)CCC(=O)N3)cc1	3.74
CCOc1ccccc1C(=O)N[C@H](C(=O)Nc1cc(S(=O)(=O)N(C)C)ccc1OC)C(C)C	-6.79
COc1ccc(-c2nnc(-c3ccc(Br)o3)o2)cc1OC	-12.3
CC1CCCCN1C(=O)CSc1ccc(-c2ccc(F)cc2)nn1 (stereo not shown)	-20

SMILES	hERG current change (%, negative = inhibition) at 10uM [%]
COc1ccc(-c2noc(C)c2-c2ccc3ccccc3n2)c(O)c1	2.79
CCOC(=O)c1ccc(NC(=O)CCc2ccc(C)o2)cc1	5.09
COc1ccc(OC)c(NC(=O)COC(=O)COc2c(Cl)cc(Cl)c3ccc(C)nc23)c1	11.9
Cc1[nH]c2ccccc2c1C(=O)COC(=O)Cn1c(C)nc2ccccc21	4.61
COC(=O)N/N=C\c1c(C)[nH]n(-c2ccccc2)c1=O	19.4
COC(=O)C1=C(C)Nc2nnnn2C1c1ccccc1Cl (stereo not shown)	-2.51
O=C(Nc1ccc(N2CCOCC2)cc1)c1cc2c(s1)CCCC2	3.49
CNc1c(NC(=O)COc2ccc(Cl)cc2)c(=O)oc2ccccc12	-37.2
CC(=O)N1CCC(N(CCN2CCOCC2)C(=S)Nc2cc(C)ccc2C)CC1	10.9
COc1ccc2cc(C(=O)C3CCCN(C(=O)CCc4cnn(C)c4)C3)ccc2c1 (stereo not shown)	-8.6
O=C(Nc1cccc2ncccc12)c1ccc(Cl)cc1	16.5
C=CCn1c(SCC(=O)Nc2cccc(OC)c2)nnc1-c1cccnc1	-44
CC(=O)Oc1ccc(N(C(C)=O)S(=O)(=O)c2cccs2)c2ccccc12	0.225
CC(=O)CSc1ncnc2sc3c(c12)CCC3	-8.5
O=C(/C=C/c1ccc(-c2ccccc2[N+](=O)[O-])o1)c1ccccc1	18.4
CC(C)(C)n1ncc2c(=O)n(Cc3ccccc3Br)cnc21	-27.9
Cc1ccc(C(=O)Nc2ccc(N3CCN(S(C)(=O)=O)CC3)cc2)cc1	4.23
CCCNC(=O)c1cn(CC)c2cc(N3CCN(C(=O)c4ccco4)CC3)c(F)cc2c1=O	-67
CCc1nn(-c2ccccc2)c(N)c1-c1ccc(OC)c(OC)c1	4.35
c1ccc2c(c1)nc1n2CCN1	1.44
COc1cc(C2NC(=O)NC(C)=C2[N+](=O)[O-])cc(OC)c1OC (stereo not shown)	9.03
COc1cc(C(=O)NCc2ccco2)c(Br)c(OC)c1OC	-4.22

— PMC4336329 (PLoS ONE, 2015)
